The values below come from PubChem BioAssay AID1508642 (National Center for Advancing Translational Sciences (NCATS), 2021).

About 200 (0.47%) of roughly 43,000 compounds were called active. Not shown: some 12% with an inconclusive outcome. Calls come from the whole dose curve; as a rule, active = well fitted cell-killing curve with a large enough effect; inconclusive = small, poorly fitted or top-dose-only effect, or effect the other way; inactive = flat fitted curve, though single readings scatter. Some of the results follow.
% is set by controls: 0 for no effect and ±100 for the full control effect.

The nature of the assay: Cell viability qHTS assay in S16 Pmp22-F2sN cells. Note: nearly all actives have a fitted effect of over 65% in size. The conditions noted are these: S16 Pmp22-F2sN Schwann cells (luciferase reporters placed in the Pmp22 gene) viability, CellTiter-Glo, 24 h; series mostly up to 57.5 µM; activity change, negative = cytotoxicity: at the top concentration. An outline of the steps: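 CellTiter-Glo counter-screen, qHTS, 1536-well. Cells: S16(c9) Pmp22-F2sN, 500-1,000/well in DMEM + 10% FBS. Cpd 23 nL pin transfer, 24 h, 37C/5% CO2. Read: luminescence, CCD imager.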
With `COC(=O)c1ccc(NC(=O)C(=O)NCC(c2cccnc2)N2CCN(c3ccccc3)CC2)cc1` (stereo not drawn), the “activity change, negative = cytotoxicity” value was inactive: 12.6%.
With `CCOC(=O)c1cc(-c2ccccc2)n(CCC(=O)NCCc2cccc(C)c2)c1C` the figure was inactive: -10.3%; with `CCCCNc1oc(-c2ccc(COc3ccccc3C)o2)nc1C#N`, inactive: -21.8%.
With `CCOC(=O)c1c(-c2ccc(OC)c(OC)c2)csc1NC(=O)c1ccc(C)cc1` the figure was inactive: 1.28%; with `CCCCN1CCCc2cc(CN(CCCN3CCOCC3)C(=O)Nc3ccc(CC)cc3)ccc21`, inactive: 14.1%.
Take `O=C(O)c1cccc(NC(=O)c2cc3cc(Br)cc(Br)c3oc2=O)c1`: the “activity change, negative = cytotoxicity” value is inactive: 0.134%.
With `O=C(NCc1ccc(F)cc1)c1cc2cccc3c2n1CCS3` the figure was inactive: -1.42%; with `Cc1ccc(NC(=O)CN2C(=O)C(c3ccc(C(C)(C)C)cc3)=NC2(C)C)cc1`, inactive: -13.6%; with `CCCN(CCC)C(=O)CSc1c2c(nc3ccc(Cl)cc13)CCCC2`, inactive: 26.9%.
The value for `O=[N+]([O-])c1cc(-c2nc(-c3ccccc3)no2)ccc1NCc1cccnc1` was inactive: 0.44%; that for `COc1ccccc1CNC(=O)CCCCn1c(=O)c2ccccc2n(CC(=O)Nc2c(C)cc(C)cc2C)c1=O` was inactive: 26.8%.
With `COc1ccccc1Cc1nc2ccccc2nc1SCC(=O)Nc1ccc2c(c1)OCO2` the figure was inactive: -7.05%.
On to `Cc1ccc(C)c(NC(=O)C(Cc2ccccc2)n2cccc2)c1` (stereo not drawn), for which the “activity change, negative = cytotoxicity” value was inactive: -5.53%.
On to `COc1ccc(OC)c(NC(=O)Cn2c(=O)n(Cc3ccco3)c(=O)c3cc(OC)c(OC)cc32)c1`, for which the “activity change, negative = cytotoxicity” value is inactive: 7.18%.
For `Brc1ccc(Nc2c3c(nc4nncn24)CCC3)cc1`, the “activity change, negative = cytotoxicity” value was inactive: -25.4%.
Turning to `Cc1ccc(C(=O)Nc2ccc(-c3nc4ccccc4o3)cc2)cc1Cl`, the “activity change, negative = cytotoxicity” value was inactive: -1.3%.
For the compound `Cc1cc(C)cc(-n2c(SCC(=O)Nc3cccc(F)c3)nc3c([nH]c4ccccc43)c2=O)c1`, the “activity change, negative = cytotoxicity” value is inactive: 4.84%.
Regarding `COc1ccc(N(Cc2cccs2)C(=O)COc2cccc(C)c2C)cc1`, the “activity change, negative = cytotoxicity” value is inactive: -2.6%.
The value for `CCN1CCN(c2ncc3c(n2)CCN(CC(C)C)C3)CC1` was inactive: 11.8%; that for `CSc1ccc(NC(=O)C2CCN(c3ncccn3)CC2)cc1` was inactive: -18.8%.
In the case of `CCOC(=O)N1CCc2c(sc(NCc3cccc(F)c3)c2C(=O)Nc2ccc(OC)cc2)C1`, the “activity change, negative = cytotoxicity” value was inactive: 2.94%.
With `Cc1ccc(CNc2nc3ccc(Cl)cc3n3nnnc23)cc1` the figure was inactive: 0.317%.
`COc1ccc(-n2cc(-c3ccccc3)nc2SCC(=O)Nc2ccccc2C)cc1`: the “activity change, negative = cytotoxicity” value is inactive: 0.0181%.
Regarding `COc1cc(NC(=O)CCn2c(=O)oc3ccccc32)cc(OC)c1OC`, the “activity change, negative = cytotoxicity” value is inactive: 2.63%.
The value for `Cc1cc(-c2ccc(C)c(S(=O)(=O)Nc3ccccn3)c2)on1` was inactive: -0.302%.
With `COc1cc(OC)c(NS(=O)(=O)c2c(C(=O)N3CCCCCC3)c(C)n(C)c2C)cc1Cl` the figure was inactive: 13.4%.
Regarding `COc1ccc(Br)cc1CNC(=O)c1ccc2nc(C(C)C)oc2c1`, the “activity change, negative = cytotoxicity” value is inactive: 2.65%.
The value for `Cc1cccc(CC(=O)N2CC(=O)Nc3ccc(C)cc3C2c2ccc(F)cc2)c1` (stereo not drawn) was inactive: -7.69%; that for `CCOc1ccc2oc(=O)cc(CN3CCN(Cc4ccc(C)cc4)CC3)c2c1` was inactive: -9%.
In the case of `Cc1ccc(Nc2c3c(nc4nc(-c5cccs5)nn24)CCCC3)cc1F`, the “activity change, negative = cytotoxicity” value was inactive: 4.35%.
The value for `Cc1oc(-c2ccc(Cl)cc2)nc1CS(=O)CC(=O)NCCc1ccccc1` (stereo not drawn) was inactive: 21.1%.
With `CCOC(=O)Cn1nc(C)c(NC(=O)COc2ccccc2)c1C` the figure was inactive: -4.33%.
The value for `COc1ccc(S(=O)(=O)NC(C)(C)C)cc1-c1nnc2c3ccccc3c(C)nn12` was inactive: 7.45%; that for `Cc1cccc(Cn2c(=O)n(CCCC(=O)NCc3ccccc3Cl)c(=O)c3ccccc32)c1` was inactive: 0.199%; that for `COc1ccccc1CNc1nc(-c2ccco2)nn1S(C)(=O)=O` was inactive: -20.4%.
In the case of `Cc1ccc(S(=O)(=O)c2nc(-c3cccs3)oc2SCC(=O)Nc2cc(C)cc(C)c2)cc1`, the “activity change, negative = cytotoxicity” value was inactive: 0.772%.
The value for `COc1ccccc1OCC(=O)N(Cc1cccs1)C1CCS(=O)(=O)C1` (stereo not drawn) was inactive: 3.16%; that for `COc1ccccc1NC(=O)CN(c1cc(C)cc(C)c1)S(=O)(=O)c1c(C)[nH]c(=O)[nH]c1=O` was inactive: 5.13%.
The value for `CCc1nnc(SCc2nc(-c3cccc(Cl)c3)oc2C)c2cc3sc(C)cc3n12` was inactive: 2.75%; that for `COc1cc(OC)c(NS(=O)(=O)c2cc3c(cc2C)N(C(C)=O)CCO3)cc1Cl` was inactive: 2.41%.
On to `COc1ccc(Cl)cc1NC(=O)CCn1c(=O)c2cccn2c2ccccc21`, for which the “activity change, negative = cytotoxicity” value was inactive: 8.71%.
With `Cc1ccc(C)c(Cn2c(=O)cc(C(F)(F)F)c3c(C)nn(C)c32)c1` the figure was inactive: -1.04%; with `Cc1ccccc1C(=O)NCc1nc(-c2ccc(Cl)cc2)no1`, inactive: -22.9%; with `NC(=O)c1c(NC(=O)c2cc(-c3ccc(F)cc3)on2)sc2c1CCCC2`, inactive: 0.697%.
As to `Cc1cccc(NC(=O)Cn2nnc(C(=O)NCc3cccs3)c2N)c1`, the “activity change, negative = cytotoxicity” value is inactive: 9.01%.
With `CCC(C(=O)Nc1ccc(C(C)C)cc1)n1nc(C)n2c(cc3cc(C)ccc32)c1=O` (stereo not drawn) the figure was inactive: -18.5%; with `Cc1ccc(NC(=O)c2c(C)nc3sc(C(=O)Nc4ccc(F)cc4)c(N)c3c2-c2ccc(Cl)cc2)c(C)c1`, inactive: 1.02%; with `COc1cccc(NC(=O)CCc2nnc3n(Cc4ccccc4Cl)c(=O)c4ccccc4n23)c1`, inactive: 14%.
With `Cc1cccc(CN2C(=O)c3ccccc3S(=O)(=O)c3ccc(C(=O)N(C)Cc4ccccc4)cc32)c1` the figure was inactive: 14%; with `Cc1ccc(Nc2c(-c3ccc(N4CCOCC4)cc3)nc3cccc(C)n23)cc1`, inactive: 0.559%; with `O=C1CC(c2nnc(Cc3c(F)cccc3Cl)o2)CN1c1ccccc1` (stereo not drawn), inactive: -4.45%.
With `CCOC(=O)c1ccc(NC2(c3ccccc3)C(=O)c3ccccc3C2=O)cc1` the figure was inactive: 3.35%; with `COc1ccccc1C(=O)Nc1nnc(S(=O)(=O)N2CCN(c3ccc(F)cc3)CC2)s1`, inactive: 5.55%.
Take `CCOC(=O)c1ccc(NC(=O)c2sc3ccccc3c2Cl)cc1`: the “activity change, negative = cytotoxicity” value was inactive: 21.8%.
The value for `Cc1ccc(-c2nnc3ccccc3c2C(=O)Nc2ccc(C)c(F)c2)cc1` was inactive: 0.0639%; that for `Cc1ccc(NC(=O)Cn2nnc(C(=O)NCCc3ccccc3)c2N)cc1` was inactive: 17.9%.
As for `Clc1ccc(-c2csc(-c3nc(-c4ccc(Br)s4)cs3)n2)cc1`, the “activity change, negative = cytotoxicity” value was inactive: -1.57%.
The value for `O=C(NCc1ccc(Cl)cc1)c1ccc2c(c1)NC(=O)C(CS(=O)(=O)Cc1ccc(F)cc1Cl)N2` (stereo not drawn) was inactive: -0.804%.
The value for `CCC(C)Sc1oc(-c2ccco2)nc1S(=O)(=O)c1ccc(Cl)cc1` (stereo not drawn) was inactive: -23.9%; that for `CCc1ccc(NC(=O)C2CCCN(S(=O)(=O)c3cccc4nsnc34)C2)cc1` (stereo not drawn) was inactive: -2.52%.
Regarding `COc1cc2c(cc1OC)C(COc1ccc3c(C)cc(=O)oc3c1)N(C(=O)Cc1ccccc1)CC2` (stereo not drawn), the “activity change, negative = cytotoxicity” value was inactive: -0.504%.
With `COC(=O)c1cc2sccc2n1CC(=O)Nc1ccc(C)cc1C` the figure was inactive: 1.92%; with `Cc1ccccc1OCC(=O)Nc1ccc(C(=O)OCc2cc(=O)n3ccsc3n2)cc1`, inactive: 0.51%.
The value for `Cc1ccccc1NC(=O)c1nc(S(C)(=O)=O)ncc1N(Cc1ccco1)Cc1sccc1C` was inactive: 0.587%.
With `CCN(C(=O)CCc1nc(-c2ccc(C)cc2)no1)c1cccc(Cl)c1`, the “activity change, negative = cytotoxicity” value was inactive: 1.48%.
The value for `Cc1cc(C)c(Cn2c3ccccc3c3cnn(CC(=O)NCCC4=CCCCC4)c(=O)c32)c(C)c1` was inactive: 15.3%; that for `COc1cccc(CNC(=O)c2ccc3nc(-c4ccccc4)c(-c4ccccc4)nc3c2)c1OC` was inactive: -26.1%; that for `CCOc1ccccc1C(=O)NC1(C(F)(F)F)C(=O)Nc2c1c(=O)[nH]c(=O)n2-c1ccccc1` (stereo not drawn) was inactive: 7.05%.
For `Cc1ccc(S(=O)(=O)c2cn(Cc3ccccc3)c3cc(N4CCCC4)c(F)cc3c2=O)cc1`, the “activity change, negative = cytotoxicity” value was inactive: -3.1%.
For the compound `CCOC(=O)c1[nH]c2ccccc2c1NC(=O)c1ccc(OC(C)C)cc1`, the “activity change, negative = cytotoxicity” value was inactive: 4.26%.
With `COc1cc(OC)cc(C(=O)Nc2ccc(S(=O)(=O)Nc3cc(C)nc(C)n3)cc2)c1`, the “activity change, negative = cytotoxicity” value was inactive: 1.27%.
For `CCn1cc(S(=O)(=O)c2ccccc2)c(=O)c2cc(C)ccc21`, the “activity change, negative = cytotoxicity” value was inactive: -17.8%.
The value for `CC(C)(CC(=O)OCC(=O)Nc1ccc(F)c(Cl)c1)CC1=NS(=O)(=O)c2ccccc2N1` was inactive: 12.2%; that for `COc1cc(NC(=O)c2cc3c(=O)oc4ccc(C)cc4c3s2)cc(OC)c1OC` was inactive: -0.22%.
As to `O=C(CSc1nccn1-c1ccc(Cl)cc1)Nc1nc2ccccc2s1`, the “activity change, negative = cytotoxicity” value is inactive: -0.22%.
For `COc1ccc(CCN2CC(C(=O)NCCc3ccc(C)cc3)CC2=O)cc1OC` (stereo not drawn), the “activity change, negative = cytotoxicity” value is inactive: -1.82%.
The value for `CCCCn1c(COc2cccc(OC)c2)nc2ccccc21` was inactive: 2.77%; that for `Brc1ccc(-c2cc3c(N4CCN(c5ccccc5)CC4)nccn3n2)cc1` was inactive: -3.9%.
Regarding `Cc1ccccc1NC(=O)c1sc2nc(-c3ccncc3)ccc2c1N`, the “activity change, negative = cytotoxicity” value was inactive: -14.8%.
The value for `Cc1nc(C)c(-c2ccc(SCC(=O)Nc3ccccc3F)nn2)s1` was inactive: 12.1%; that for `COCCCNC(=O)CCCn1c(=O)c2cccn2c2cccnc21` was inactive: 3.44%; that for `COc1cccc(CNC(=O)CCNS(=O)(=O)c2cccc3nsnc23)c1` was inactive: -1.77%.
As for `Cc1cc2ccccc2n1-c1ccc(C(=O)N2CCCCC2)s1`, the “activity change, negative = cytotoxicity” value is inactive: -27.8%.
With `CCOC(=O)c1ccc(N2C(=O)c3n[nH]c(-c4cccs4)c3C2c2ccc(C)cc2)cc1` (stereo not drawn) the figure was inactive: 3.89%; with `CCCCOc1cccc(C(=O)Nc2cc3nn(-c4ccc(F)cc4)nc3cc2C)c1`, inactive: 5.83%.
With `CCCN(CCC)CCCNC(=O)Cn1ncc2c3ccccc3n(Cc3ccc(F)cc3)c2c1=O` the figure was inactive: -1.11%; with `CCOC(=O)N1CCc2c(sc3c2c(=O)n(Cc2ccccc2)c(=O)n3Cc2c(F)cccc2Cl)C1`, inactive: 15.1%; with `CN(Cc1ccccc1)C(=O)c1cc2c(=O)n(C)c3ccccc3c2s1`, inactive: 0.752%.
The value for `CSc1cccc(N2C(=O)N(Cc3ccc([N+](=O)[O-])cc3)c3ccccc3S2(=O)=O)c1` was inactive: 14.2%; that for `CC(=O)Cn1nnc2sc(-c3ccccc3)cc2c1=O` was inactive: -13.1%; that for `COCCNC(=O)c1cc2n(n1)CCCN(Cc1ccc(C)cc1)C2=O` was inactive: -29.4%.
For the compound `COc1ccc(CC(=O)Nc2c(C(=O)Nc3ccccc3F)oc3ccccc23)cc1`, the “activity change, negative = cytotoxicity” value is inactive: 4.88%.
As to `COc1ccc(NC(=O)CC2C(=O)N(c3ccc(C)cc3)C(=O)N2CCc2ccccc2)cc1` (stereo not drawn), the “activity change, negative = cytotoxicity” value is inactive: 0.699%.
With `COc1ccc(NC(=O)Cc2coc3cc(C)cc(C)c23)c(OC)c1` the figure was inactive: 3.61%; with `COc1ccc2c(c1)c1c(c(=O)n(Cc3ccccc3)c(=O)n1Cc1cc(C)ccc1C)n2C`, inactive: -0.436%; with `COc1cccc(OCc2nc3ccccc3n2CCOc2ccccc2)c1`, inactive: 2.38%.
Regarding `Cc1nn2c(=O)cc(COC(=O)c3ccccc3NC(=O)c3ccccc3C)nc2s1`, the “activity change, negative = cytotoxicity” value was inactive: 3.3%.
The value for `COc1ccc(-c2ccc(NS(=O)(=O)c3ccc(F)c(C(F)(F)F)c3)cc2)nn1` was inactive: -13.5%.
